Results reported in PubChem BioAssay AID1645887 (National Center for Advancing Translational Sciences (NCATS), 2021).
Several values for one entry are separate records, joined by “and”; a condition that tells them apart may be missing. Equal entries are not always repeated. The whole screen tested about 16,000 compounds, of which about 40 (0.2%) were called active. Not shown: some 1% with an inconclusive outcome. Calls come from the whole dose curve; as a rule, active = well fitted activation curve with a large enough effect; inconclusive = small, poorly fitted or top-dose-only effect, or another doubt; inactive = no such curve, though single readings can be large or run the other way. The list shows a part of the results.

target: Rap guanine nucleotide exchange factor 4 (Homo sapiens) (UniProt Q8WZA2); assay: Validation qHTS for agonist of cAMP-regulated guanine nucleotide exchange factor 4 (EPAC2); conditions: EPAC2 Rap1B BODIPY-GDP exchange, fluorescence; activation: stronger effect = higher value;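 note: exchange makes BODIPY-GDP fluorescence drop when released from Rap1B; series mostly up to about 150 µM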
How it was run: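 Fluorescent exchange assay: 100 nM EPAC2 with 250 nM RAP1B-BODIPY-GDP and 50 uM GDP; compound added, 5 min at room temperature, then read (ex 480/em 540 nm) every 5 min for 30 min. Normalized to 6.5 mM cAMP agonist control.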
% is set by controls: 0 for no effect and ±100 for the full control effect.

UniProt Q8WZA2, sequence (Q8WZA2 whole entry, looked up): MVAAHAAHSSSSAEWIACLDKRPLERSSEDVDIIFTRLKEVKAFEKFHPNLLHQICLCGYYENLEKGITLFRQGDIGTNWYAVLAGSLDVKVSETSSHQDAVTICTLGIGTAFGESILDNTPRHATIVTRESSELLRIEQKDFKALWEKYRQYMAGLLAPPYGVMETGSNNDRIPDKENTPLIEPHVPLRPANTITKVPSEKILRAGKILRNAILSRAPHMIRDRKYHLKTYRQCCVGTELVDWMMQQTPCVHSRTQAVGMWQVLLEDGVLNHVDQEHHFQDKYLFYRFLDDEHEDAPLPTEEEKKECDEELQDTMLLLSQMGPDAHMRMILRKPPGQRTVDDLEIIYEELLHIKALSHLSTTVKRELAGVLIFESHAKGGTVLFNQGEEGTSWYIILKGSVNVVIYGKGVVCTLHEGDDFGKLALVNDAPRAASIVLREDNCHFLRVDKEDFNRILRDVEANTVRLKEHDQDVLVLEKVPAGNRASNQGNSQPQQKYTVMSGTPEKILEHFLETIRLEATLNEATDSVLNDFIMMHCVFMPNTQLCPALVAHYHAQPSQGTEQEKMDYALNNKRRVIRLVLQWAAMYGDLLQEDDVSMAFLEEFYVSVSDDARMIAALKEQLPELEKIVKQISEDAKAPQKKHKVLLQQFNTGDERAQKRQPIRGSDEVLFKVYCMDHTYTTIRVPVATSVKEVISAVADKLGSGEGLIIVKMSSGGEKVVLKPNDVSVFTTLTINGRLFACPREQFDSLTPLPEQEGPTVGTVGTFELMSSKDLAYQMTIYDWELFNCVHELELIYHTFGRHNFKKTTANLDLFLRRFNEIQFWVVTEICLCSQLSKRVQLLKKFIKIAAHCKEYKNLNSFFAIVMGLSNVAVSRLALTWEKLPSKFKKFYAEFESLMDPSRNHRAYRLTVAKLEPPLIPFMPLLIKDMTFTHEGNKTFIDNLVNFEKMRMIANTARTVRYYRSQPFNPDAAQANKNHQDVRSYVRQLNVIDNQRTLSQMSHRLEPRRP

activation, inactive:
Cc1noc(C)c1C(=O)N1CCC2(CC1)CN(c1ccccn1)C2 2.39%
CC#CCOC(=O)C1=CCCN(C)C1 -7.2% and -4.07%
COc1ccc(C(=O)N2CCC3(CC2)CN(C(=O)Nc2ccccc2)C3)cc1 -5.38%
CC(C)(C)c1onc(OCP(=O)(O)O)c1CC(N)C(=O)O (centres undefined) 12.3% and -15.3%
COc1ccc(CN2CCOc3ccc(CN4CCC(O)CC4)cc3C2)c(OC)c1OC -5.24%
COc1ccc(-c2nc3cnc(Nc4cccc(OC)c4)nc3n(Cc3cccs3)c2=O)cc1 -19.2%
O=S(=O)(O)c1ccc2nc(-c3ccccc3)[nH]c2c1 -3.31%
CC(=O)N1C[C@H](O)C[C@H]1C(=O)O -5.88%
CN(C)C(=O)Nc1ccc(Cl)c(Cl)c1 -20.6%
Cc1nc2sccn2c1CN1CCOc2ccc(CN3C[C@@H](C)O[C@@H](C)C3)cc2C1 -13.8%
Cc1ccccc1C(=O)NC(C)c1nnc2n1CCN(Cc1ccccc1F)CC2 (centres undefined) 0.0011%
COc1ccc2cc(C(C)C(=O)O)ccc2c1 (centres undefined) 0.614% and 0.307%
COC(=O)C1N[C@@H]([C@@H](NC(=O)COc2ccccc2)C(=O)Nc2ccc(OC)cc2)SC1(C)C (some centres undefined) -24.1%
c1ccc(C(c2ccccc2)N2CCC3(CCNCC3)CC2)cc1 3.13%
Clc1ccccc1-c1nccc(NCc2cccs2)n1 -21.7%
COC(=O)c1ccc(CN2CCC3(CCC(CNC(=O)c4ccccc4)O3)CC2)cc1 (centres undefined) -15%
COC(=O)N1CCC[C@@]2(CCN(Cc3cc(C(F)(F)F)cc(C(F)(F)F)c3)C2)C1 -0.822%
COCc1c(C(=O)N2CCCC(C)C2)cnn1-c1nccc(-c2cc(C)sc2C)n1 (centres undefined) -5.58%
OC(c1cccnc1)c1ccc2c(c1)CN(Cc1ccc(-c3ccccc3Cl)o1)CCO2 (centres undefined) -11.2%
COc1ccc(C(=O)N2CCC3(CCN(Cc4ccccc4)CC3)CC2)cc1 -2.93%
O=C(O)CCCCCCCCc1cn(CN2C(=O)c3ccccc3C2=O)nn1 -2.05%
O=C(O)C=Cc1ccc(Cn2ccnc2)cc1 -11.7%
Cc1ncc2c(c1CNS(=O)(=O)N(C)C)CCN(C(=O)c1ccccc1F)C2 -17.2%
Oc1cc2c(cc1O)[C@H](c1ccccc1)CNCC2 -10.8%
COc1ccccc1CC(Cc1nc2ccccc2[nH]1)c1nc2ccccc2[nH]1 (centres undefined) -14.8%
C#C[C@]1(OC(C)=O)CCC2C3CCC4=CC(=O)CCC4C3CC[C@]21C (some centres undefined) 9.2%
C=C(Nc1ccc(OCC)cc1)Nc1ccc(OCC)cc1 -18.8% and 1.72%
O=C(c1cc(C(F)(F)F)cc(C(F)(F)F)c1)N1CCC2(CCCN(Cc3ccncc3)C2)CC1 -33.7%
Cn1c(=O)c(-c2cccs2)nc2cnc(N3CCNCC3)nc21 15.1%
Cc1cccc(-c2cnc(C)nc2C2CCCN(C(=O)c3cccc(Cn4cccn4)c3)C2)c1 (centres undefined) -14.1%
Cc1c(C(=O)NCC(C)(C)N2CCOCC2)cnn1-c1ncc2c(n1)-c1ccccc1CCC2 -9.03%
CC(=O)c1ccc(F)c(-c2cc(C)cc3c2OC(CNC(=O)c2ccnn2C)C3)c1 (centres undefined) -7.19%
COc1ccc(-c2coc3cc(OC)cc(OC)c3c2=O)cc1 -8.25%
O=c1c(O)c(-c2ccccc2)oc2cc(O)ccc12 -19.1%
COc1cc(CN2CCCC(c3nc(-c4ccncc4)ncc3-c3ccccc3)C2)ccc1O (centres undefined) -21%
NCC1O[C@H](O[C@@H]2C(O)[C@H](O[C@H]3OC(CO)C(O)C(N)C3O)[C@@H](N)C[C@H]2N)[C@@H](N)CC1O (some centres undefined) -5.58%
CC(C)C[C@@H](CO)N1CCN(Cc2cccc(C#N)c2)CCC1=O -27.7%
CCOC(=O)c1c[nH]c2cc(OCC(C)C)c(OCC(C)C)cc2c1=O -9.73%
Cc1noc(C)c1-c1cncnc1N(C)Cc1ccco1 4.09%
CC(=O)C1CCC2C3CCC4=CC(=O)CC[C@@]4(C)C3CC[C@]12C (some centres undefined) -17.9%
C=C[C@]1(C)CC(=O)[C@@]2(O)[C@@]3(C)C(O)CCC(C)(C)C3C(O)C(OC(C)=O)[C@@]2(C)O1 (some centres undefined) 0.289%
COc1ccc(C2CNC(=O)C2)cc1OC1CCCC1 (centres undefined) 7.95% and 2.86% and -22.4%
CCN(CC)c1ncnc2c1ncn2[C@@H]1O[C@H](COP(=O)(O)OP(=O)(O)C(Br)(Br)P(=O)(O)O)[C@@H](O)[C@H]1O -23.9%
CC(/C=C/c1cccc(Oc2ccc(F)cc2)c1)N(O)C(N)=O (centres undefined) -10.1% and -37.8%
O=c1c(O)c(-c2ccc(O)cc2O)oc2cc(O)cc(O)c12 -3.99% and 21.7% and -3.76%
Cc1cnc(CNc2ccnc(-c3ccccc3C)n2)cn1 -7.88%
CC(C)c1c(C(=O)NCCN2CCOCC2)cnn1-c1nccc(-c2cccs2)n1 -6.66%
CCNc1ncc2nc(-c3ccccc3)c(=O)n(Cc3cccc(OC)c3)c2n1 -9.22%
COC(=O)c1cc(CNC(=O)c2ccc3ncccc3c2)cc(NC(=O)c2ccccc2Cl)c1 -17.5%
COc1ccc(CNc2nc(-c3ccc4c(c3)OCO4)nc3ccccc23)c(OC)c1 18.5%
COCCNc1nc(-c2ccccc2C(F)(F)F)nc2ccccc12 -4.15%
N#CCCn1c(=O)c(CCc2ccccc2)nc2cnc(Oc3cccc(Cl)c3)nc21 -3.83%
COc1cccc(-c2ccc3ncnc(N(C)Cc4ccco4)c3c2)c1 -7.2%
CS(=O)(=O)c1ccc(-c2cccc3c2OC(CNC(=O)c2ccnc(Cl)c2)C3)cc1 (centres undefined) -3.8%
CCCCCCCCCCCC[N+](C)(C)Cc1ccccc1 -9.9%
O=C1CC(c2ccc(O)c(O)c2)Oc2cc(O)cc(O)c21 (centres undefined) -4.54%
COc1cccc(Cn2c(=O)cnc3cnc(Nc4ccccc4)nc32)c1 -56.7%
Cc1cccnc1-c1cccc2c1OC(CNC(=O)Cc1c(C)noc1C)C2 (centres undefined) -18.6%
CCOC(=O)[C@H](CCc1ccccc1)N[C@H]1CS[C@H](c2cccs2)CN(CC(=O)O)C1=O 7.82%
CCCCC[C@H]1CN(Cc2ccccc2)C(=O)[C@@H]1CC(=O)NCc1ccc(OC)cc1 -33.7%
O=C1NC(=O)/C(=C/c2ccc3nccnc3c2)S1 -19.3%
Oc1ccc2c(c1)OC(c1ccc(O)c(O)c1)C(O)C2 (centres undefined) -37%
NC(N)=NN=C(/C=C/c1ccc([N+](=O)[O-])o1)/C=C/c1ccc([N+](=O)[O-])o1 27%
CN1CCCN(C(=O)[C@@H]2C[C@@H](Sc3nc4ccccc4[nH]3)CN2Cc2ccc(-c3ccccc3)cc2)CC1 -0.104%
c1ccc(-c2cccc(N3CCC4(CCNCC4)CC3)c2)cc1 -12.5%
CCc1cccc2c(C(O)(c3c[nH]c4c(CC)cccc34)c3c[nH]c4c(CC)cccc34)c[nH]c12 -26.7%
CCC1CN(Cc2cn[nH]c2-c2ccc(OC)cc2)Cc2cc(OC)ccc2O1 (centres undefined) -1.83%
CO/N=C(\C(=O)N[C@@H]1C(=O)N2C(C(=O)[O-])=C(C[n+]3ccc(N)n3CCO)CS[C@H]12)c1csc(N)n1 -0.99%
CN(C)c1ncc2nc(-c3ccc(F)cc3)c(=O)n(-c3ccccc3)c2n1 -9.61%
c1ccc(CNc2ncnc3ccc(-c4ccoc4)cc23)cc1 -26.4%
COc1ccc(-c2cc3ncc(C)n3c(Nc3ncccc3C(N)=O)n2)cc1OC -29.9%
O=C1OCCN1/N=C/c1ccc([N+](=O)[O-])o1 23.5% and -4.66%
NC(=O)c1ccc([N+](=O)[O-])cc1Cl -15.8%
COCc1c(C(=O)N2CCN(c3ccccc3)CC2)cnn1-c1nccc(-c2ccco2)n1 1.98%
CC1=CC(=O)C2=C(C)CCC3C(C)C(=O)OC3C12 (centres undefined) -3.54%
O=C(c1csnn1)N1CCC2(CCCN(c3ccncc3)C2)CC1 6.72%
CC(C)(C)[C@@H]1CCC(=O)N(CC[C@H](N=[N+]=[N-])c2ccccc2)CC1 -16.6%
COc1ccc(-c2nc3cc(C)ccc3cc2CN(C(=O)c2ccc(C)s2)C2CC2)cc1OC -19.5%
O=C(/C=C/C(=O)Oc1ccccc1C(=O)O)Oc1ccccc1C(=O)O -0.456%
O=S1(=O)CCOC[C@H](c2ccccc2)N1Cc1cccc(F)c1 -22.1%
CCOC(=O)N1CCN(Cc2ccc3c(c2)CN(C(=O)c2noc4c2CCCC4)CCO3)CC1 -10.3%
O=C(Nc1ccc(Oc2ccc(Cl)cc2)c(Cl)c1)c1cc(I)cc(I)c1O -1.43%
c1ccc2c(c1)Sc1ccccc1N2CCN1CCCC1 -7.08%
Fc1cccc(/C=N\N=C/c2cccc(F)c2)c1 -7.59%
